Consider 22 molecules from paper PMC12136788.

The other results are listed elsewhere or left out.

The chains are these.
T1: UNK ZnF1-6 (called full-length) (human, UniProt Q9C0B0 30-357)
T1 sequence: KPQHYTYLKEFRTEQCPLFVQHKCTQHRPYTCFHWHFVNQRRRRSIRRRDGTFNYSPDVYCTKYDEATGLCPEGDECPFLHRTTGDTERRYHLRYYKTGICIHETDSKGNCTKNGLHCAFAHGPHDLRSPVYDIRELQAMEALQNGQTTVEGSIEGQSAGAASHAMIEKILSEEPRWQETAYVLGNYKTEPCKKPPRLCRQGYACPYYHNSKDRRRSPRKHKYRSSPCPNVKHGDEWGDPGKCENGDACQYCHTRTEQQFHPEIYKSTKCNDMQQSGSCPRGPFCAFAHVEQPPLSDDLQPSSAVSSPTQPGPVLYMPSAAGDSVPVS

B1: chr3:58171454:58171555:+|3pUTR|ENSG00000136068|msi1|FALSE|unique (ssRNA)
RNA: GGGAGUUCUACAGUCCGACGAUCGGUGAUUAUUUCUUGCAGAAUCACCACACGAGACCAUCCCGGCAGUCAUGGUUUUGCUUUAGUUUUCCAAGUCCGUUUCAGUCCCUUCCUUGGUCUGAAGAAAUUCUGCAGUGGCGAGCACAACAGAGGAUUGAGCAUCA
B2: chr1:86742159:86742388:+|CDS|ENSG00000097033|unk|FALSE|bound_elsewhere (ssRNA)
RNA: GGGAGUUCUACAGUCCGACGAUCUGUACCAUCAGUUUUACCAAAUGCGAUUGGUUCUUCUGCCAUGGCUUCAACAAGUGGCCUAGUAAUCACCUCUCCUUCCAACCUCAGUGACCUUAAGGAGUGUAGUGGCAGCAGAAAGGCCAACAGAGGAUUGAGCAUCA
B3: chr9:133763799:133763900:-|3pUTR|ENSG00000160293|msi1|FALSE|unique (ssRNA)
RNA: GGGAGUUCUACAGUCCGACGAUCCGAACCGUUUCACUGUCAGCCUGCCCUCGGCGACCCAUCACUGGGUAUGCUAUUGUACAUAGAGGAAACCUGGGCUAGCCCCACCCAGAGCGCAGAGGAGGGGGCACCGACAGCGCUGCGCAACAGAGGAUUGAGCAUCA
B4: ENSG00000070961:be:win_4501|3pUTR|ENSG00000070961|bound_else_gene|NA|bound_elsewhere_windowed (ssRNA)
RNA: GGGAGUUCUACAGUCCGACGAUCCCUUUUGUUCAGAAUUUAGUAGAUUGUUUAAUGCAGGACAUCAACUACAUAAUGAAAGAUGCUUGAAAUGCUUUUGUUAUUUCAGGCAAAUCAAAUUAAAUCAGACUAUCAAACUACAAGCAACAGAGGAUUGAGCAUCA
B5: ENSG00000169710:stop:overlap|stop_codon|ENSG00000169710|stop_codon|NA|stop_codon (ssRNA)
RNA: GGGAGUUCUACAGUCCGACGAUCCCAUCAUCAGCAUCAUCCACAGCUCCCUGGCUGAGCCACGCGUGAGCGUGCGGGAGGGCUAGGCCCGUGCCCCCGCCUGCCACCGGAGGUCACUCCACCAUCCCCACCCCACCCCACCCCCAACAGAGGAUUGAGCAUCA
B6: chr7:32869766:32869881:-|CDS|ENSG00000170852|unk|total|mutant (ssRNA)
RNA: GGGAGUUCUACAGUCCGACGAUCAUGUACUGUUAUUUUCCAAGGUCUGACUCAUGGGCCGAAAUGGCCAUGAGACAGACCCGCCGGUCCUUUGCUUCAGCUGCAGCUUUUGGUGAUAAAAUUUUCUAUAUUGGAGGGUUGCAUCAACAGAGGAUUGAGCAUCA
B7: chr6:55753652:55755532:-|three_prime_utr|ENSG00000112175|control|control|control (ssRNA)
RNA: GGGAGUUCUACAGUCCGACGAUCUAAGGUUUAUGGCUGCAAUAAAAAGCAUACUUUCAGACAAACGGGGAAUUUCCUAAAAUUAGUCUGGCUCAUUUUGACUCUUUUCCUAUGUACAAUAUCAUGUAUAUAGUCAUUUUUAUUCAACAGAGGAUUGAGCAUCA
B8: chr3:11557766:11557867:-|3pUTR|ENSG00000144560|msi1|FALSE|unique (ssRNA)
RNA: GGGAGUUCUACAGUCCGACGAUCCUGGACUGCAGACUCUACCAAUCACGGGCAUUUUAUCUUCUCUGAACACUGCAGUUUGUUAGACUAGAGCUGAGGUUGGAGGAUUCCAUAGUGCUUUAAACGUGAUGCAUGUUUUAAUGGCAACAGAGGAUUGAGCAUCA
B9: chr3:185917260:185917361:-|3pUTR|ENSG00000136527|msi1|total|mutant (ssRNA)
RNA: GGGAGUUCUACAGUCCGACGAUCUGGCAAAAAGCAACAAUAAACAGUUUGAUUUUUACUUUUCUUUCUAACAUAUCAAUGCUCCGCAGAACUAUUCAGAUUGUCAGCCGUAAAUUUAAAGACAAAUGCCCGUUUUCCUCCAGUCAACAGAGGAUUGAGCAUCA
B10: chr2:42682433:42682535:+|CDS|ENSG00000057935|unk|total|mutant (ssRNA)
RNA: GGGAGUUCUACAGUCCGACGAUCUCACGCUAUGGAUACAUUGUACCGACACAGCUAUGAUUUGAGCAGUGCCAUCCGUGUCUCCGUACCACUCGGAGGACCUGUUUUAUGCAGAGAUGAAAUGGAGGAAUGGUCAGCCUCUGACAACAGAGGAUUGAGCAUCA
B11: ENSG00000126524:stop:overlap|stop_codon|ENSG00000126524|stop_codon|NA|stop_codon (ssRNA)
RNA: GGGAGUUCUACAGUCCGACGAUCAGCUCAAGCCACUGAUCAAGGUCAUAGAAAGUGAAGAUUAUGGCCAACAGUUAGAAAUCUAGAGACGGAGUUUCACCGUGUUAGCCAGGACGGUCUUGAUCUCCUGACCUCAUGAUCCACCAACAGAGGAUUGAGCAUCA
B12: ENSG00000170113:stop:overlap|stop_codon|ENSG00000170113|stop_codon|NA|stop_codon (ssRNA)
RNA: GGGAGUUCUACAGUCCGACGAUCUGUUCAAAGAGUUCAAUUUCAACCUUGGGGAGAUGAACAAAUCUAAUAUGAAAACAGACUAGAUUGCAAUAGGAGCUUGGAUGGUUCGAGGAAUAGGCAUUGGAGGUGGUUUCUGGCCGUCAACAGAGGAUUGAGCAUCA
B13: chr12:7652437:7652835:-|CDS|ENSG00000111701|control|control|control (ssRNA)
RNA: GGGAGUUCUACAGUCCGACGAUCCUCCCAGGCUAUUAGAGAGUUUCUGAGUCGGCACCCUGGUGUGACUCUAGUGAUCUACGUAGCUCGGCUUUUUUGGCACAUGGAUCAACAAAAUCGGCAAGGUCUCAGGGACCUUGUUAACAACAGAGGAUUGAGCAUCA
B14: chr11:61403655:61403707:-|3pUTR|ENSG00000149532|msi1_unk|FALSE|overlapping (ssRNA)
RNA: GGGAGUUCUACAGUCCGACGAUCUGAAGUAACCAGGAGGAAUGGGGAAAGAAGCAAGUUGGGCAGGAUAUGGCCUACUUCCAUAGGCUUUUCUUUUUUCAGGUUUGAUGUAAGCAUGGGCUUACAUCCCCCAGGUACAUACUUCAACAGAGGAUUGAGCAUCA
B15: chr17:4948375:4948459:-|5pUTR_CDS|ENSG00000108518|msi1_unk|total|mutant (ssRNA)
RNA: GGGAGUUCUACAGUCCGACGAUCAGCCGAGGCAGCUCGAGCCCAGUCCGCGGCCCCAGCAGCAGCGCCGAGAGCAGCCCCAGCCGCAGCGCCAUGGCCGGGUGGAACGCCUACAUCGACAACCUCAUGGCGGACGGGACCUGUCAACAGAGGAUUGAGCAUCA
B16: chr17:1004907:1005008:-|3pUTR|ENSG00000159842|msi1|FALSE|unique (ssRNA)
RNA: GGGAGUUCUACAGUCCGACGAUCAAGAGGGGCCAGGCUUCCUGGAGGGUGACUGAUGUGGCCGAAGCAGGUGUCCAGGCAGGUAGGCUGCAGCCAGGAGCUCCCUGGCACCGCAGGACCUCGUGGUACUCUUGCCUUAGAUUUCAACAGAGGAUUGAGCAUCA
B17: chr12:53253816:53253925:+|CDS|ENSG00000182544|unk|FALSE|unique (ssRNA)
RNA: GGGAGUUCUACAGUCCGACGAUCUCUCUUCAUGUUGACUUUCUCUACCAGCCCAGGCCAGGAGAGUCCGGUGGAGUCCUUCAUAGCCUUUCUACUUAUUGAGUUGGCUUGUGGAUUAUACUUUCCCAGCAUGAGCUUCCUACGCAACAGAGGAUUGAGCAUCA
B18: ENSG00000136451:be:win_1851|3pUTR|ENSG00000136451|bound_else_gene|NA|bound_elsewhere_windowed (ssRNA)
RNA: GGGAGUUCUACAGUCCGACGAUCUCAUAAGUAGAACCCACUUCAAAAUAAAAAAACAGCAUUACUAUUUCUAAUCCCAAGGAAUCACUUUAUUGUAAACACUAGCAGAACUCUUCUCCCUAUACAAGGUGGAUGGCUGAUUUUCAACAGAGGAUUGAGCAUCA
B19: chr6:158982484:158982688:-|CDS|ENSG00000130363|control|control|control (ssRNA)
RNA: GGGAGUUCUACAGUCCGACGAUCGAAGAAGAAGAGCUGGCUAACCUGCGGGCCAGUCAGCGUGAGUAUGAAGAACUACGGAAUAGUGAACGUGCUGAAGUUCAACGACUUGAAGAGCAAGAGAGGCGACACCGAGAAGAAAAACAACAGAGGAUUGAGCAUCA
B20: chr16:70157515:70157662:+|3pUTR|ENSG00000090857|msi1|FALSE|unique (ssRNA)
RNA: GGGAGUUCUACAGUCCGACGAUCCUCCCUAUAAUUUUCUUCAUCUCUUGCUAAUCUCUAUAAUAAGGUUGCUUUUUCUUUCUUAGUUGAGUAAACAAGUAAGCCACAGUGUUUGAAAGGGAAAAACCAUAUUGCCUUGUGUGUCAACAGAGGAUUGAGCAUCA
B21: chr11:47420279:47420382:-|CDS|ENSG00000165916|unk|FALSE|unique (ssRNA)
RNA: GGGAGUUCUACAGUCCGACGAUCAAACAGGGUGGACAUCCUGGACCCCGCCCUCCUCCGCUCGGGCCGCCUUGACCGCAAGAUAGAGUUCCCGAUGCCCAAUGAGGAGGCCCGGGCCAGAAUCAUGCAGAUCCACUCCCGAAACAACAGAGGAUUGAGCAUCA
B22: chr15:48342169:48342270:+|3pUTR|ENSG00000128951|msi1_unk|total|mutant (ssRNA)
RNA: GGGAGUUCUACAGUCCGACGAUCAAAAAAAAAAAAAGUUUUUGCUUCAAGUGUUUUGGUGUUUUGCACUUCUGUAAACUUACCCGCUUUACCUUCUAAAAGUACUGCAUUUUUUACUUUUUUUUAUGAUCAAGGAAAAGAUCACAACAGAGGAUUGAGCAUCA

The target of this experiment is T1, UNK ZnF1-6 (called full-length). Description: nsRBNS (natural sequence RNA bind-n-seq); RBNS binding buffer (assumed for nsRBNS): 25 mM Tris pH 7.5, 150 mM KCl, 3 mM MgCl2, 0.01% Triton X-100, 500 ug/ml BSA, 20 U/ml SUPERase-In, 4 C; UNK is unkempt and MSI1 is Musashi-1; names of the RNAs are library labels; protein concentration not given here; high values mean tight binding.
In turn, B1 returned a binding signal of 0.682 enrichment R.
The same measure for B2: 0.516 enrichment R; for B3: 0.73 enrichment R; for B4: 0.383 enrichment R.
The same measure for B5: 0.273 enrichment R; for B6: 0.377 enrichment R.
To B7 belongs 0.886 enrichment R; to B8, 0.912 enrichment R; to B9, 0.344 enrichment R.
Molecule B10 registered a binding signal of 0.568 enrichment R.
The same measure for B11: 0.747 enrichment R.
The same measure for B12: 1.22 enrichment R; for B13: 0.351 enrichment R; for B14: 0.865 enrichment R.
B15: the binding signal is 0.992 enrichment R.
The same measure for B16: 1.75 enrichment R; for B17: 0.799 enrichment R; for B18: 1.38 enrichment R.
The same measure for B19: 0.602 enrichment R.
B20 registered a binding signal of 0.624 enrichment R.
To B21 belongs 0.752 enrichment R.
The same measure for B22: 0.471 enrichment R.
